Measured values published in PubChem BioAssay AID686979 (National Center for Advancing Translational Sciences (NCATS), 2013).
Among all 420,000 compounds or so, about 50,000 (12%) were called active. The inconclusive results got no clear call from the source; some entries with a clear call stand among them for comparison. The call rests on the fitted dose curve; in most records, active means well fitted inhibition curve with a large enough effect; inconclusive means small, poorly fitted or top-dose-only effect; inactive means flat fitted curve, though single readings scatter. No potency is given beside an inconclusive call; the fits are too rough.
Potency means the concentration at half of the fitted maximal effect; tags describe the fitted curve by direction and shape.

Assay: qHTS for Inhibitors of human tyrosyl-DNA phosphodiesterase 1 (TDP1): qHTS in cells in presence of CPT; further: nearly all actives have a fitted effect of over 55% in size
Conditions: chicken DT40 Tdp1-/-;hTDP1 cells + 20 nM CPT, ATP luminescence, 48 h; series mostly up to 46.2 µM
Procedure, shortened: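 Chicken DT40 Tdp1-/- cells stably complemented with human TDP1 were seeded at 400 cells/well in medium containing 20 nM camptothecin, exposed to pin-transferred compounds, and grown at 37 °C for at least 48 hr. Viability was read as ATP luminescence.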
With `CC(C)(C)c1ccc(S(=O)(=O)N2CCN(c3ccccn3)CC2)cc1` the Potency was inconclusive [inhibitor, single point].
In the case of `COc1cc(-c2nnc(SCC(=O)N(C)C3CCCCC3)o2)cc(OC)c1OC`, the Potency was active: 11.6 µM.
With `O=C(c1ccco1)N1CCN(c2ncnc3scc(-c4ccc(Cl)cc4)c23)CC1` the Potency was inconclusive [inhibitor, single point].
For `Cc1ccc(OCC(=O)OCc2cc(=O)n3nc(C4CCCCC4)sc3n2)cc1`, the Potency was “inactive”.
For `CCN(c1ncnc2c1c(-c1ccccc1)cn2-c1ccccc1)C1CCCCC1`, the Potency was “inactive”.
With `Cc1nc(Nc2cccc(C(F)(F)F)c2)nc2c1C(=O)CC(C)C2` (centres undefined) the Potency was inconclusive [inhibitor, partial curve].
For `CCOC(=O)Nc1ccc2c(c1)N(C(=O)N(C)C)c1ccccc1CC2`, the Potency was inconclusive [inhibitor, single point].
In the case of `CC(C)C[C@H]1CNC(=O)C(=O)N1C[C@H]1CCCN1C[C@H](CC(C)C)N1C[C@H](Cc2ccccc2)N(CCc2ccccc2)C(=O)C1=O`, the Potency was active: 20.6 µM.
For `Cc1cc(=O)oc2c3c(cc(OCC(=O)NCCCn4ccnc4)c12)OC(C)(C)CC3`, the Potency was inconclusive [inhibitor, single point].
For `Nc1ccc(SCC(=O)Nc2cccc([N+](=O)[O-])c2)cc1`, the Potency was inconclusive [inhibitor, single point].
With `CCCCCn1c(=O)[nH]c2cc(C(=O)NCc3ccc4c(c3)OCO4)ccc2c1=O` the Potency was “inactive”.
For `Cc1ccc(/C=N/NC(=O)NN(C)c2ncc(C(F)(F)F)cc2Cl)cc1`, the Potency was “inactive”.
For `CCC1SC2=NC(C)=C(C(=O)OCCOC)C(/C=C/c3ccccc3OC)N2C1=O` (centres undefined), the Potency was “inactive”.
For `CC(C)(C)c1ccc(/C=N/OCC(=O)NCc2ccc(F)cc2)cc1`, the Potency was inconclusive [inhibitor, single point].
In the case of `CSCCC(NC(=O)C1CCCCC1)C(=O)Nc1ccc(F)c(Cl)c1` (centres undefined), the Potency was inconclusive [inhibitor, single point].
In the case of `CCNc1c(NC(=O)c2ccccc2OCC)c(=O)oc2ccccc12`, the Potency was inconclusive [inhibitor, single point].
With `O=C(NC1CCCCC1)c1cc2nc3c(c(C(F)(F)F)n2n1)CCCC3` the Potency was inconclusive [inhibitor, single point].
With `Cc1cccc(N2CCN(C(=O)c3cn(C)c(=O)c4c3c3ccccc3n4C)CC2)c1C` the Potency was active: 22.4 µM.
For `Cc1cccc(NC(=O)c2ccccc2NC(=O)Cc2ccccc2)c1C`, the Potency was inconclusive [inhibitor, single point].
